In the supplement of paper PMC10441789:
This is one part of the list. Antibody binding of pooled human sera (four to six donors per pool; dilution not stated) to peptides of the Trypanosoma cruzi antigen TSSA on microarrays. Quantile-normalised fluorescence in arbitrary units, mean of duplicate arrays; higher = more binding. No active / inactive call. The uninfected pools are read here as the healthy donors of the same country. The strongest signals lie near the top of the scale (about 60,000).

system: pooled sera of uninfected people, Colombia; test: antibody binding signal (normalised fluorescence) (arbitrary fluorescence units); higher = stronger serum antibody binding to peptide
Protocol: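 Microarray of 15-residue peptides over residues 30-55 of Trypanosoma cruzi TSSAII, each with 1 to 10 substitutions at naturally variable positions, probed with one serum pool per country.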

Sequence | antibody binding signal
GKDKKPATGEAPSPS | 181
DKKPATGGTPSPSGA | 263
ENKAATGEAPSPSGA | 120
KDNKAAAGGAPSPSG | 139
KAAAGEAPSPPGASS | 121
TEKKPATGGTPSQSG | 239
TPPSGTDKKTATGGA | 241
TENKAAAGGAPSPPG | 195
KKTAAGETPSPSGAS | 264
GKDNKAATGETPSPS | 242
EKKTATGGAPSPSGA | 161
DNKPATGGAPSPSGA | 238
SGKENKPAAGETPSQ | 421
TPPSGKDNKTATGGT | 196
KDNKPATGEAPSQPG | 221
PSGKEKKTAAGEAPS | 987
GKEKKAAAGETPSPS | 78.5
TPPSGKENKTAAGGA | 506
PSGKDNKTAAGEAPS | 311
TISTPPSGTDNKTAA | 418

Sequence | antibody binding signal
STPPSGKDNKAAAGE | 324
TEKKTAAGGAPSQPG | 295
NKTAAGEAPSPPGAS | 667
TDNKTAAGGTPSPSG | 365
GTDKKPAAGEAPSQS | 153
GKDKKPAAGGAPSPP | 88.7
GTENKPATGEAPSPS | 173
GKDKKAATGEAPSPP | 235
GKENKTAAGETPSQP | 192
TEKKAAAGGAPSPPG | 144
TENKAATGETPSQPG | 232
KDKKTAAGGTPSPPG | 143
STPPSGKENKAATGE | 1250
KEKKPAAGGAPSPSG | 81
GKDKKAATGGTPSPP | 253
GTEKKTAAGGTPSQS | 193
KEKKTATGGAPSPPG | 112
PSGTDKKTAAGGTPS | 327
GTENKPAAGETPSPS | 158
GTENKPAAGETPSPP | 182
